Reference: PubChem BioAssay AID1508623 (National Center for Advancing Translational Sciences (NCATS), 2021)
In all, about 48,000 compounds went through this assay and about 450 (0.94%) were called active. The inconclusive results got no clear call from the source; some entries with a clear call stand among them for comparison. Calls follow the shape of the dose curve; as a rule, active = well fitted inhibition curve with a large enough effect; inconclusive = small, poorly fitted or top-dose-only effect; inactive = no such curve, though single readings can be large or run the other way. Where the call is inconclusive, the potency comes from a doubtful curve fit.

assay: Primary qHTS for Identification of Small Molecule Inhibitors of Huntingtin Promoter Activity; conditions: HEK293 HTT promoter firefly luciferase reporter (activity 0% = vehicle and -100% = no light), 24 h; activity change, negative = inhibition: at 57.5 µM (top of the series); also: nearly all actives have a fitted effect of over 50% in size
Method in brief: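 Quantitative HTS used concentration series of up to 57.5 uM final on HEK293 luciferase reporter cells, 24 h at 37 degrees C. Readout was Dual-Glo firefly luminescence.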
Potency is read from the fitted curve at half-maximal effect; tags tell the direction and shape of the fitted curve.

Potency, inconclusive:
CCOC(=O)c1ccccc1NC(=O)CSc1ncc2c(n1)-c1ccccc1N(CC)S2(=O)=O 28.2 µM [inhibitor, single point]
COc1cc2nc(SCc3ccc(F)cc3)n3nc(CCn4c(C)nc5ccccc54)nc3c2cc1OC 4.47 µM [inhibitor, full curve]
COc1ccc(CCNC(=O)Cn2c(-c3cccs3)cc3cc(F)ccc32)cc1OC 31.6 µM [inhibitor, partial curve, poor fit]
CC(=O)c1cc(-c2ccc(F)cc2)n(CC(=O)NCc2ccc(C)cc2)c1C 14.1 µM [inhibitor, partial curve, poor fit]
CCN(CC)c1ccc(NC(=O)c2sc3nc(-c4ccccc4)cn3c2C)cc1 28.2 µM [inhibitor, partial curve, poor fit]
Cc1cn([C@H]2C[C@H](N=[N+]=[N-])[C@@H](CO)O2)c(=O)[nH]c1=O 43.2 µM [inhibitor, single point]
O=C(C1CCN(c2ncnc3c2nc2n3CCCCC2)CC1)N1CCN(c2ccccc2)CC1 35.5 µM [inhibitor, single point]
O=C(NCc1ccc(Cl)cc1)C1CCN(S(=O)(=O)c2ccc3c(c2)CCCN3C(=O)C2CCC2)CC1 22.4 µM [inhibitor, partial curve, poor fit]
O=C(Nc1ccc2oc(-c3cc(Br)ccc3Cl)nc2c1)c1ccc2ccccc2c1 17.8 µM [inhibitor, partial curve, poor fit]
O=C(CSc1ccc(-c2cccs2)nn1)Nc1cccc(F)c1 31.6 µM [inhibitor, single point]
COc1ccccc1N1CCN(c2ncnc3onc(C)c23)CC1 20 µM [inhibitor, partial curve, poor fit]
CN(C(=O)c1oc(=O)c2ccccc2c1-c1ccccc1)c1cccc(Cl)c1 39.8 µM [inhibitor, single point]
CCOc1ccc(CCNC(=O)Cc2ccc(NC(=O)N3CCSc4ncccc43)cc2)cc1 14.1 µM [inhibitor, partial curve, poor fit]
COc1cc(OC)cc(C(=O)Nc2nc(-c3nnn(-c4ccc(F)c(Cl)c4)c3C)ns2)c1 39.8 µM [inhibitor, single point]
COc1ccc(NC(=O)CSc2nc(C)cc(C)c2C(=O)Nc2cccc(C)c2)cc1 25.1 µM [inhibitor, single point]
CCOc1ccc(-c2cc(CCCC(=O)NCCc3ccc(OCC)c(OCC)c3)no2)cc1 0.708 µM [inhibitor, full curve, poor fit]
CCNC(=O)c1noc(-c2cc(C(C)C)c(O)cc2O)c1-c1ccc(CN2CCOCC2)cc1 1.09 µM [inhibitor, full curve]
Cc1ccc(N2CCN(C(=O)c3c(C)oc4nc(C)nc(N5CCCC5)c34)CC2)c(C)c1 28.2 µM [inhibitor, single point]
COc1ccc(NC(=O)c2sc3nc4c(cc3c2N)CCCCCC4)cc1Cl 12.6 µM [inhibitor, partial curve, poor fit]
Cc1nc2cccnc2n1C1CCN(S(=O)(=O)c2ccc(C(C)C)cc2)CC1 14.1 µM [inhibitor, partial curve]
CCc1ccccc1N(C)S(=O)(=O)c1ccc2[nH]cc(C(=O)NCCOC)c(=O)c2c1 17.8 µM [inhibitor, partial curve, poor fit]
Cc1c2cnn(-c3ccccc3)c(=O)c2c(C)n1CC(=O)N1CCN(c2ccc(F)cc2)CC1 22.4 µM [inhibitor, partial curve, poor fit]
COc1ccc(-c2nnc(SCC(=O)NCc3ccccc3)nc2-c2ccc(OC)c(OC)c2)cc1OC 11.2 µM [inhibitor, partial curve]
Cc1ccc(CN(Cc2ccco2)C(=O)COc2ccc(Cl)cc2Cl)cc1 28.2 µM [inhibitor, partial curve, poor fit]
CCOC(=O)c1cc(-c2ccc(F)cc2)n(CC(=O)NCc2ccc(OC)cc2)c1C 10 µM [inhibitor, partial curve]
COc1ccc(S(=O)(=O)N2CCC(c3nnc(-c4ccccc4C)o3)CC2)c(OC)c1 31.6 µM [inhibitor, single point]
Cc1noc2ncnc(N3CCCC(C(=O)NCCC(C)C)C3)c12 (stereo not drawn) 12.6 µM [inhibitor, partial curve]
Cc1ccc(C(N)=O)cc1Nc1nccc(-c2cn(C(C)C)c3cnccc23)n1 4.85 µM [inhibitor, full curve]

Potency, active:
O=C(Nc1ccc(Br)cc1)c1ccc(Br)c(S(=O)(=O)N2CCCCC2)c1 12.6 µM

Activity change, negative = inhibition, inactive:
Cc1nn(C)c2c1c(-c1ccccc1)cc(=O)n2CC(=O)NC(C)(C)C -23.9%
COc1cc(NS(=O)(=O)c2cccs2)cc(OC)c1 -9.91%
Cc1ccc(-c2ncn(-c3ccc(Nc4nccc(-c5cccc(N6CCOCC6)c5)n4)cc3)n2)cn1 68.5%
Fc1ccc(C(Nc2ccc(Cl)c(C(F)(F)F)c2)c2nnc(-c3ccccc3)o2)cc1 (stereo not drawn) -35.9%
CCCCNc1nc2c(S(=O)(=O)c3ccc(Cl)cc3)nnn2c2ccsc12 -9.19%
CC(C)(C)c1ccc(S(=O)(=O)c2cnc(SCC(=O)Nc3ccc(F)c(Cl)c3)[nH]c2=O)cc1 3.66%
CCOc1ccc(NC(=O)Cc2ccc(NC(=O)N3CCCCc4ccccc43)cc2)cc1 -31.4%
COC(=O)c1ccc([C@H]2Nc3ccc(S(=O)(=O)Nc4ccc(C)cc4)cc3[C@H]3C=CC[C@H]32)cc1 -20.2%
O=C(C=Cc1ccc(/C=C/C(=O)Nc2ccc(C3=NCCN3)cc2)cc1)Nc1ccc(C2=NCCN2)cc1 -5.98%
